In all, about 310,000 compounds went through this assay and about 14,000 (4.5%) showed an effect of 50% or more. The effect is printed as a negative number. The list shows a part of the results.
Molecular target: human ether-à-go-go-related gene (hERG) potassium channel (human, UniProt Q12809)
Experiment: primary screen, population patch clamp on CHO cells stably expressing hERG
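Further: peak tail current of the secondary pulse compared with the same well before compound.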

human ether-à-go-go-related gene (hERG) potassium channel, sequence (Q12809 whole entry, looked up): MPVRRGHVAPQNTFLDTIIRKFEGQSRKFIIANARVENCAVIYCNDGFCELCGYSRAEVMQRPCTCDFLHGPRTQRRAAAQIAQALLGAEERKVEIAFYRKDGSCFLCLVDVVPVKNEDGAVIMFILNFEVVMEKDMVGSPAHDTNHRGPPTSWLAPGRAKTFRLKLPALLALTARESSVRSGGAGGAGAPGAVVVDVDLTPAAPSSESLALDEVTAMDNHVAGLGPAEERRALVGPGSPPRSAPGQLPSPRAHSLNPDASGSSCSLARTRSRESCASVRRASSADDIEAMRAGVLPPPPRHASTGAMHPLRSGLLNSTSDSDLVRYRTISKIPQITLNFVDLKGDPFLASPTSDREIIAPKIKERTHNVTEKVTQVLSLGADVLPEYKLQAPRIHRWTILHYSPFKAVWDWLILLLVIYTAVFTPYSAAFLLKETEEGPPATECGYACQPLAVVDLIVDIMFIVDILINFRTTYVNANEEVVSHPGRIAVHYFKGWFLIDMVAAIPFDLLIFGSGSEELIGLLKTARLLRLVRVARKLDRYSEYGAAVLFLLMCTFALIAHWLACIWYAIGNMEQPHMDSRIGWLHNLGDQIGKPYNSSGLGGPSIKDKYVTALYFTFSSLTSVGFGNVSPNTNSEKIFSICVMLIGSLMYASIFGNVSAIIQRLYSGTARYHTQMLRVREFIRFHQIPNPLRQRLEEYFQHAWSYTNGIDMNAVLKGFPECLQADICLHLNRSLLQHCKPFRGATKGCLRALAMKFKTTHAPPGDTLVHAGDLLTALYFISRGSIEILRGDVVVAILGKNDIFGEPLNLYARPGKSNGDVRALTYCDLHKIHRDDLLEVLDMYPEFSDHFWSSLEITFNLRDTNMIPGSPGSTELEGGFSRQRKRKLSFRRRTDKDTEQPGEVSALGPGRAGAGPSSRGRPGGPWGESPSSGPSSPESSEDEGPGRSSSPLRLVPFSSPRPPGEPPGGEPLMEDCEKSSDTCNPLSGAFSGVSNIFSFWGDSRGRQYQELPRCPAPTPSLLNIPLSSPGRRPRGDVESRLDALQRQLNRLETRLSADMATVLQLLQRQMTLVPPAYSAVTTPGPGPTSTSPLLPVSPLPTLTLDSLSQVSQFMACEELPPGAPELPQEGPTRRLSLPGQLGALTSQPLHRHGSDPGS

Structure (SMILES) | hERG current change (%, negative = inhibition) at 10uM [%]
Cc1ccc(C)c(N(CC(=O)NCc2ccccc2)C(=O)c2csnn2)c1 | -14.7
CC(=O)N1CCc2cc(S(=O)(=O)NC(Cc3ccccc3)C(=O)NC3CCCCCC3)ccc21 (centres unmarked) | -12.6
COc1ccc2oc(=N)c(C(=O)Nc3ccccc3)cc2c1 | -43.5
O=C(c1ccc(OCC2CCCO2)cc1)N1CCc2ccccc2C1 (centres unmarked) | -4.28
O=C(O)CCC(=O)Nc1ccc(OCC(=O)O)cc1 | 5.18
Cc1ccccc1-n1c(SCC(=O)Nc2ccccc2Cl)nc2n[nH]c(C)c2c1=N | 6.44
O=S(=O)(/N=C/N1CCOCC1)c1ccc(Cl)cc1 | 6.29
CCC(C)N(C(=O)COC(=O)c1cc([N+](=O)[O-])ccc1N)C1CCS(=O)(=O)C1 (centres unmarked) | -15.3
CC(C)C[C@@H]1NC(=O)[C@H](C(C)C)NC(=O)c2cc([N+](=O)[O-])cc(I)c2NCC[C@@H](C(N)=O)NC1=O | -3.38
COc1ccc(NC(=O)c2ccc(Br)o2)c([N+](=O)[O-])c1 | 6.12
Cc1ccc(C)c(CSc2ccc3nnc(-c4ccccn4)n3n2)c1 | -76.5
N#Cc1cc(Oc2ccc3ccccc3c2)c(-n2nnc3ccccc32)cc1C#N | 16.5
COc1ccc(F)cc1S(=O)(=O)Nc1ccc(C)cc1 | 4.11
Brc1ccc(-c2cn3ccccc3n2)cc1 | 6.47
Cc1ccc(NS(=O)(=O)c2cc3c4c(c2)CC(=O)N4CCC3)cc1C | -26.7
CN1c2ccccc2N(C)C1(C)c1cccc2ccccc12 | 7.03
COc1cc(CC(=O)Nc2ccc3c(c2)CCC3)cc(OC)c1OC | -0.207
COc1cc(C(=O)/C=C/c2cccnc2)c([N+](=O)[O-])cc1OC | 11.4
Cc1onc(-c2ccccc2Cl)c1C(=O)NCCn1ccc2ccccc21 | -26.4
Cc1cccc(N2CCN(C(=O)C(C)C)CC2)c1C | -12
O=C(Nc1ccc(OC(F)F)cc1)c1cc(S(=O)(=O)N2CCCCC2)ccc1N1CCOCC1 | -65.8
COc1cc(-c2nc(Cc3c(F)cccc3Cl)no2)cc(OC)c1OC | 1.73

Structure (SMILES) | hERG current change (%, negative = inhibition) at 10uM [%]
O=c1cc(-c2ccccc2)[nH]c2cc(Cl)ccc12 | 5.47
CC1(C)CC(NC(=O)c2ccncc2)CC(C)(C)N1O.Cl | 14.6
C=C1CCC2C(C)(C)[C@@H](O)CC[C@@]2(C)[C@@H]1COc1ccc2ccc(=O)oc2c1 (some centres unmarked) | 28.9
COc1ccc(/C=C(/C(=O)NCc2ccccc2)c2ccccc2)cc1 | -13.7
COc1ccnc(CSC(N)=Nc2ccccc2OC)c1.Cl | -44.6
C/C(CCC(C)C)=N\Nc1cc(C)c2ccccc2n1 | -8.27
Nc1oc2ccccc2c1C(=O)Cc1ccccc1O[C@@H]1O[C@H](CO)[C@@H](O)[C@H](O)[C@H]1O | 21.9
COc1cc(CNCc2ccccn2)ccc1OCc1ccc(Cl)cc1Cl.Cl | -58.1
COc1ccc(SC[C@H](C)CN2CC[C@H](C(C)(C)C)CCC2=O)cc1 | -7.41
Cc1onc(-c2ccccc2Cl)c1C(=O)N(C)Cc1ccccc1 | -3.37
COc1ccc(C(=O)COC(=O)c2cccc(-n3cnnn3)c2)c(OC)c1 | 12.3
CCOc1ccc(S(=O)(=O)N2CCC(C(=O)NCC(=O)Nc3cccc(Cl)c3C)CC2)cc1 | -23.5
Cc1ccc(Cn2c(C(C)Nc3nc(-c4ccc(C)cc4)cs3)nc3cc(Cl)c(Cl)cc32)cc1 (centres unmarked) | -10.8
Cc1cc(OCc2cc(C(=O)O)oc2C)c2c3c(c(=O)oc2c1)CCCC3 | 4.54
CCOc1cc(C(=O)OCc2ccc(OC)cc2)ccc1OCC(=O)N1CCOCC1 | -15.1
CC(C)OCCCNC1=C(Cl)C(=O)c2ccccc2C1=O | -4.77
COC(=O)c1c(-c2c(Cl)cccc2Cl)noc1C(=O)NN | 4.26
Cc1ccc(NC(=O)C(C)OC(=O)Cc2c[nH]c3ccccc23)cc1S(=O)(=O)N1CCOCC1 (centres unmarked) | -7.86
Cc1ccc(NC(=O)CN(C)CC(=O)Nc2ccc(F)c(F)c2F)c(Cl)c1 | -2.02
O=C(O)C1=C[C@H](c2coc3ccccc3c2=O)C[C@H](OCc2ccc(CO)cc2)O1 | 3.58
CCOC(=O)c1cc(-c2ccc3c(c2)OCCO3)n[nH]1 | 20.3
Brc1ccc(-c2csc3[n+]2CCCCC3)cc1.[Br-] | -6.25

Structure (SMILES) | hERG current change (%, negative = inhibition) at 10uM [%]
Cc1cc(Nc2ccccc2)nc2cc(O)ccc12 | -11.5
CC(=O)N1c2ccc(S(=O)(=O)N3CCCC3)cc2CC1C(=O)NCc1ccc(N(C)C)cc1 (centres unmarked) | -3.65
CC(=O)Nc1ccc(Oc2ccc([N+](=O)[O-])cc2Cl)cc1 | -44.6
COC(=O)c1cc(S(=O)(=O)N2c3ccccc3CC2C)cn1C (centres unmarked) | 8.19
CC1=C(C(=O)NCCN2CCOCC2)C2(CCC(C)CC2)OC1=O (centres unmarked) | 14.9
CCOC(=O)N1CCN(S(=O)(=O)CCNC(=O)c2ccccc2)CC1 | 16.8
CCO/N=C/c1ccc(OC)c(Oc2nc(OC)cc(OC)n2)c1 | -5.71
Cc1cc(NC(=O)c2cc(-c3ccc(OC(C)C)cc3)nc3ccccc23)no1 | 22.7
COc1cccc(/C(O)=C2/C(=O)C(=O)N(CCN3CCOCC3)C2c2cccs2)c1 (centres unmarked) | 3.96
COC(=O)C1CC(c2ccc(Cl)cc2)=NO1 (centres unmarked) | -4.69
CC(=O)c1ccc(O)c(CSc2nncn2C)c1 | -0.576
COc1ccc(NC(=O)c2ccc(NC(=O)c3cccs3)cc2)cc1 | 11.2
COc1ccc(F)cc1C1=CC(=O)C[C@H](c2ccc3c(c2)OCO3)C1 | 9.36
CCC(=O)OC1CSc2nc3ccccc3n2C1 (centres unmarked) | -12.3
O=C(CCN1C(=O)COc2ccccc21)NCCN1CCN(c2cccc(Cl)c2)CC1 | -56.5
Cc1cc(C)cc(N2CC(c3nc4ccccc4n3C)CC2=O)c1 (centres unmarked) | -10.8
Clc1ccc(-c2nc(-c3cc4cc(Cl)ccc4o3)cs2)cc1 | 4.59
CN1CCc2nc(SCc3ccc(Cl)cc3)c(C#N)c(-c3cccs3)c2C1 | -66.2
CNc1oc(-c2cccc3ccccc23)nc1C#N | -0.799
COc1ccc(/C(C#N)=C/c2ccccn2)cc1 | 4.95
S=c1nc(-c2ccco2)[nH][nH]1 | 19.1
COc1ccc(Cc2nc3ccc(S(=O)(=O)N4CCOCC4)cc3[nH]2)cc1 | -6.24

Structure (SMILES) | hERG current change (%, negative = inhibition) at 10uM [%]
CCCCCc1cc(=O)oc2c(C(CCN3CCCC3)c3cc(OC)c(OC)c(OC)c3)c(OC)cc(OC)c12 (centres unmarked) | -65.6
O=[N+]([O-])c1ccc(N(CC(O)CN2CCCCC2)S(=O)(=O)c2ccccc2)cc1 (centres unmarked) | -74
COC(=O)c1cccc(Cn2c(Cl)c(/C=N/NC(=O)c3ccccc3Cl)sc2=O)c1 | -9.46
CCOC(=O)c1c(C)nc2ccc(Cl)cc2c1-c1ccccc1 | 6.84
O=C(COc1ccccc1[N+](=O)[O-])Nc1ccccc1N1CCCC1 | -29.1
CCCOc1ccc(/C=c2\sc3ncnn3c2=O)cc1 | 6.61
CCn1cc(C(=O)NCCC(=O)OC)c(=O)c2cc3c(cc21)OCO3 | 18.9
Cc1c(N=C(N)/N=C(\N)Nc2ccc(Br)cc2)c(=O)n(-c2ccccc2)n1C | 7.51
CC1C(=O)N2CCCc3cc(NC(=O)CC(C)(C)C)cc1c32 (centres unmarked) | 9.89
COc1ccc(NC(=O)C2CCCN(S(=O)(=O)c3ccc(-n4cnnn4)cc3)C2)cc1 (centres unmarked) | 14.5
COc1cccc(NC(=O)CN(C)C(=O)CSCc2nc3scc(-c4cccs4)c3c(=O)[nH]2)c1 | -16.2
Cc1c(Cl)cccc1NC(=S)N(Cc1ccco1)C(C)c1ccccn1 (centres unmarked) | -11
O=C(CC1CCCC1)Nc1cccc(Br)c1 | -3.4
COc1ccc(C)cc1NC1=C(Cl)C(=O)N(C2CCCCC2)C1=O | -15.7
Cn1cncc1C#Cc1ccc2cc(CCO)oc(=O)c2c1 | -18.1
COc1ccc(C2/C=C\CN(C(=O)NC34CC5CC(CC(C5)C3)C4)CC(=O)N2Cc2ccc(F)cc2)cc1 (centres unmarked) | -0.098
CCOC(=O)C1(CCOc2ccccc2)CCN(Cc2cnc(C)[nH]2)CC1 | -48.3
CC(Sc1nnnn1C)C(=O)Nc1ccc(N2CCOCC2)cc1 (centres unmarked) | 13.1
COc1ccc(C(C)=O)cc1CSc1nnc(Nc2ccccc2C)s1 | -17.9
COc1cccc(NC(=O)Cc2nnc(SCC(=O)NC3=NCCS3)n2C)c1 | 25.7

From PMC4336329 (PLoS ONE, 2015)
